Laboratory results published in PubChem BioAssay AID463173 (ICCB-Longwood Screening Facility, Harvard Medical School, 2010).
In all, about 52,000 compounds went through this assay and about 1,700 (3.3%) were called active. No stated cut-off is given here; in the data, active means survival mostly below about 52% (no sharp cut-off); inactive means mostly above about 56%. The list shows a part of the results.

Test system: Wild type
Assay: growth inhibition of S. aureus wild type versus tarO mutant, primary screen, teichoic acid synthesis inhibitors, RN4220, OD600 (AID 463173)
Conditions: S. aureus RN4220 wild type/DeltatarO growth, OD600, 18 h, active compounds read low, screened at 18.75 µg/mL (by protocol)

Row | SMILES | survival
1 | Cc1c(C)n(Cc2ccccc2)c2ccc(C(=O)NCc3ccco3)cc12 | inactive: 70%
2 | CCc1ccc(NC(=O)Cn2c(=O)n(CCC(=O)NCc3ccc4c(c3)OCO4)c(=O)c3ccccc32)cc1 | inactive: 110%
3 | Cc1cc(NC(=O)c2cc(-c3ccc(Cl)cc3)on2)nn1Cc1ccc(Cl)cc1 | inactive: 145%
4 | CCC1CN(C(=O)Nc2cc(C)cc(C)c2)c2ccccc2O1 (centres undefined) | inactive: 85%
5 | O=C(O)c1ccc(CSc2nnc(-c3ccncc3)n2CC2CCCO2)cc1 (centres undefined) | inactive: 94%
6 | Cc1c(-c2nsc(NC(=O)c3cccs3)n2)nnn1-c1ccc(Br)cc1 | inactive: 90%
7 | Cc1cccc(CN2CCc3nc(N4CCN(c5ccccn5)CC4)ncc3C2)c1 | inactive: 79%
8 | Cc1ccc(CNC(=O)CN2C(=O)C3CCCCN3c3ccc(C(=O)N4CCCC4)cc32)cc1 (centres undefined) | inactive: 81%
9 | O=C(NCc1ccccc1Cl)c1ccc2c(O)c(S(=O)(=O)c3ccccc3)c(=O)[nH]c2c1 | inactive: 91%
10 | COc1ccc(Cl)cc1C(=O)Nc1ccc(-c2nnc3n2CCCCC3)cc1 | inactive: 68%
11 | COc1cccc(Cn2c(=O)n(-c3ccccc3C)c(=O)c3c2c2cc(C)ccc2n3C)c1 | inactive: 99%
12 | COc1cccc(NC(=O)C2CCN(C(=O)N3CC(C)Oc4ccccc43)CC2)c1 (centres undefined) | inactive: 102%
13 | O=C(NCCSc1c(-c2ccc(F)cc2)[nH]c2ccccc12)c1ccc(S(=O)(=O)N2CCOCC2)cc1 | inactive: 106%
14 | Cc1ccc(C)c(NC(=O)CN(CCc2ccccc2)S(=O)(=O)c2ccccc2)c1 | inactive: 69%
15 | Cc1cccc(Cc2c(C)nc3nc(SCc4ccccc4C)nn3c2C)c1 | inactive: 87%
16 | CC(=O)c1ccc(NC(=O)CCc2c(C)nc3cc(-c4ccc(Cl)cc4)nn3c2C)cc1 | inactive: 73%
17 | COc1cccc(-n2c(SCc3ccccc3C)nc3c([nH]c4ccccc43)c2=O)c1 | inactive: 81%
18 | Cc1ccc(C)c(N2CCN(c3cc(C)nc4c(-c5ccc(Cl)cc5)c(C)nn34)CC2)c1 | inactive: 96%
19 | Cc1cc(C)cc(OCC(=O)NCC2(N(C)C)CCCCC2)c1 | inactive: 110%
20 | CCc1nn(CC(=O)NC(C)c2ccccc2)c(=O)c2cc3sccc3n12 (centres undefined) | inactive: 91%
21 | CCOC(=O)C1=C(CS(=O)(=O)c2ccc(F)cc2)NC(=O)NC1c1ccc(OCC)c(OC)c1 (centres undefined) | inactive: 132%
22 | CC(C)CCNC(=O)[C@@H](c1ccccc1)N1Cc2ccccc2C1=O | inactive: 55%
23 | CCOc1ccc(NC(=O)Cn2nnc(C(=O)Nc3ccc(OCC)cc3)c2N)cc1 | inactive: 85%

Row | SMILES | survival
24 | Cc1cccc(N2C(=O)C3C(C(=O)NC4CC4)C4C=CC3(O4)C2C(=O)NC2CCCC2)c1 (centres undefined) | inactive: 106%
25 | Cc1ccc(S(=O)(=O)N2CCC(c3ccncc3)CC2)c(C)c1 | inactive: 121%
26 | CCCc1cc(=O)n2[nH]c(NCc3ccccc3OC)nc2n1 | inactive: 113%
27 | Cn1c(=O)c2c(n(C)c1=O)=NC1(CCCCC1)ON=2 | inactive: 108%
28 | O=C(COc1ccccc1-c1nc(-c2ccccc2)no1)Nc1ccccc1[N+](=O)[O-] | inactive: 55%
29 | CCOC(=O)c1c(C)n(CC)c2cc(Br)c(O)cc12 | inactive: 93%
30 | CC(=O)Nc1ccc(C2Nc3c(C)cc(C)cc3-c3cc(C)nn32)cc1 (centres undefined) | inactive: 141%
31 | Cc1ccc(S(=O)(=O)NCCSc2nnnn2-c2ccc(Cl)c(C(=O)O)c2)cc1 | inactive: 126%
32 | COc1cc(OC)c(NS(=O)(=O)c2ccc3c(c2)NC(=O)CCS3)cc1Cl | inactive: 129%
33 | CCOC(=O)c1ccc(NC(=O)C(Cc2ccccc2)NS(=O)(=O)c2ccc(Br)s2)cc1 (centres undefined) | inactive: 97%
34 | Cc1cc(C)cc(Nc2sc(C(=O)c3ccccc3)c(N)c2S(=O)(=O)c2ccccc2)c1 | inactive: 78%
35 | CCOC(=O)c1c(C)oc2nc(C)nc(NCc3ccccc3OCC)c12 | inactive: 124%
36 | Cc1cc(NNC(=O)c2ccccc2)nc(NNC(=O)c2ccccc2)n1 | inactive: 103%
37 | CCOc1ccc(S(=O)(=O)NCc2ccc3c(c2)OCO3)cc1 | inactive: 116%
38 | CCCc1nc2ccccc2n2c(-c3cccc(C)c3)c3c(=O)n(C)c(=O)n(C)c3c12 | inactive: 75%
39 | O=C(NCc1ccccc1Cl)C1CCCN(c2ncnc3onc(-c4ccc(F)cc4)c23)C1 (centres undefined) | inactive: 65%
40 | COC(=O)Cn1c(=O)c2c(nc3n2CCN3c2ccc(F)cc2)n(C)c1=O | inactive: 84%
41 | CSc1nnc(C2CCCN2Cc2cccnc2)n1C (centres undefined) | inactive: 104%
42 | CSc1ccc(CNC(=O)c2ccc(NC(=O)c3nsc4ccccc34)cc2)cc1 | inactive: 119%
43 | O=C(NCc1ccccc1Cl)NCc1noc2ccccc12 | inactive: 78%
44 | COc1cccc(-n2c(SCC(=O)c3ccc(Cl)cc3)nc3c([nH]c4ccccc43)c2=O)c1 | inactive: 45%
45 | Cc1ccc(C(c2nnnn2C2CCCC2)N(Cc2cccnc2)CC2CCCO2)cc1 (centres undefined) | inactive: 106%
46 | Cc1ccc(CNS(=O)(=O)c2ccc(-c3cc(C(F)(F)F)on3)s2)cc1 | inactive: 75%

Row | SMILES | survival
47 | Nc1c(C(=O)Nc2ccccc2)nnn1Cc1ccc(F)cc1Cl | inactive: 106%
48 | Cc1ccc(N2C(=O)[C@@H]3CSC(c4ccc(F)cc4)N3C2=O)cc1 (some centres undefined) | inactive: 79%
49 | CCOc1ccccc1C(=O)Nc1nc2c(s1)CC(C)CC2 (centres undefined) | inactive: 86%
50 | COc1ccc(Cl)cc1NC(=O)Cn1c(=O)n(CCC(=O)NCc2ccc3c(c2)OCO3)c(=O)c2ccccc21 | inactive: 93%
51 | NC(=S)N/N=C/c1ccccc1OCC(=O)O | inactive: 96%
52 | Cc1ccccc1NC(=O)Cn1c(=O)n(CC2CCC(C(=O)NCCc3ccccc3)CC2)c(=O)c2ccccc21 (centres undefined) | inactive: 102%
53 | CCCCn1nc(CC(=O)O)c2ccccc2c1=O | inactive: 101%
54 | COc1cc(NC(=O)COCc2cc(-c3ccc(F)cc3)on2)cc(OC)c1OC | inactive: 76%
55 | O=C(Nc1ccc(Cl)c(-c2nc3cc(Cl)ccc3o2)c1)c1cc([N+](=O)[O-])ccc1N1CCOCC1 | inactive: 141%
56 | Cc1ccc(C(=O)Nc2cc3c(cc2N2CCCC2)n(C)c(=O)c(=O)n3C)cc1 | inactive: 73%
57 | Cc1nn(C(C)(C)C)c(OC(=O)C(C)(C)C)c1Sc1ccccc1 | active: -9%
58 | CC(=O)Nc1ccc(NC(=O)Cn2nc(C(=O)Nc3ccc(C)cc3)ccc2=O)cc1 | inactive: 126%
59 | CCOc1ccc(-c2cc3c(=O)n(CC(=O)NCc4ccc(Cl)cc4)ccn3n2)cc1 | inactive: 69%
60 | O=C(O)CCn1cnc2onc(-c3cc(F)cc(F)c3)c2c1=O | inactive: 87%
61 | CCCOc1ccc(Oc2nc(NCC(C)C)nc(N3CCOCC3)n2)nn1 | inactive: 84%
62 | Clc1ccc(CSc2ncn[nH]2)cc1 | inactive: 114%
63 | Cn1cc(C(=O)N2CCN(c3cccc(C(F)(F)F)c3)CC2)c2c3ccccc3n(C)c2c1=O | inactive: 31%
64 | COc1ccccc1N1CCN(c2nc(-c3ccc(C)cc3)nc3ccccc23)CC1 | inactive: 72%
65 | CCOc1ccc(OCC)c(NS(=O)(=O)c2c(C(=O)N3CCC(C)CC3)c(C)n(C)c2C)c1 | active: 0%
66 | COc1ccc(N2CC(NC(=O)c3ccc4c(c3)OCO4)CC2=O)cc1 (centres undefined) | inactive: 129%
67 | CCOc1ccc(NC(=O)CN(c2ccc(Cl)cc2C)S(=O)(=O)c2ccccc2)cc1 | inactive: 77%
68 | COc1ccc(NC(=O)CN(c2ccc(C)cc2)S(=O)(=O)c2cccc3nonc23)cc1OC | inactive: 80%
69 | O=C(Nc1ccc(OCc2cc(=O)n3c4c(sc3n2)CCCC4)cc1)c1ccccc1 | inactive: 78%

Row | SMILES | survival
70 | CC1CCc2nc3ncn(Cc4ccccc4F)c(=O)c3cc2C1 (centres undefined) | inactive: 53%
71 | Cc1ccc(-n2c(SCC(=O)O)nc3sc4c(c3c2=O)CCCC4)cc1 | inactive: 73%
72 | CCOc1ccc(NC(=O)c2cnc(N3CCCCC3)c3ccccc23)cc1 | inactive: 70%
73 | Cc1cccc(C(=O)Nc2ccccc2C#N)c1 | inactive: 102%
74 | COc1ccc(NC(=O)Cn2cnc3c(oc4ccccc43)c2=O)cc1OC | inactive: 83%
75 | CC(C)NC(=O)C1CCC(Cn2c(=O)c3sccc3n(CC(=O)NCc3ccccc3)c2=O)CC1 (centres undefined) | inactive: 77%
76 | CCCOc1c(Cl)cc(C(=O)N(Cc2cccc(OC)c2)C2CCS(=O)(=O)C2)cc1Cl (centres undefined) | inactive: 96%
77 | O=C(NCc1ccc2c(c1)OCO2)c1ccc2c(c1)N(Cc1ccccc1)C(=O)c1ccccc1S2=O (centres undefined) | inactive: 96%
78 | CCOC(=O)c1c(-c2ccccc2)csc1NC(=O)c1cc(-c2ccc(F)cc2)on1 | inactive: 90%
79 | N#Cc1cc2sc3nc4ccccc4n3c2cc1C#N | inactive: 101%
80 | CC(C)n1cnc(S(=O)(=O)N2CCCC(C(=O)NCc3ccccc3Cl)C2)c1 (centres undefined) | inactive: 101%
81 | CN(c1ccccc1)S(=O)(=O)c1nnc(NC(=O)c2ccccc2)s1 | inactive: 42%
82 | CCOc1ccc(C(=O)c2c(N)c(-c3nc(-c4ccc5c(c4)OCO5)cs3)c3ccccn23)cc1 | inactive: 110%
83 | COC(=O)Cn1c(=O)c2cccn2c2cccnc21 | inactive: 122%
84 | Cc1cc(C(=O)Nc2ccc(C(C)C)cc2)c2c(C)nn(-c3ccccc3)c2n1 | inactive: 80%
85 | Cc1ccsc1CN(C(=O)c1oc2cc(Br)ccc2c1C)C1CCS(=O)(=O)C1 (centres undefined) | inactive: 68%
86 | O=C(CS(=O)CC(=O)Nc1cccc2c1CCCC2)Nc1ccc(F)cc1 (centres undefined) | inactive: 105%
87 | COc1cccc(CNC(=O)CSc2c3c(nc4cc(Cl)ccc24)CCCC3)c1 | inactive: 78%
88 | CN(C)CCCN(C(=O)c1ccc2c(c1)OCCO2)c1nc2ccccc2s1 | inactive: 87%
89 | Cc1cccc2c(=O)cc(CSc3ccccc3NC(=O)c3cccc(F)c3)[nH]c12 | inactive: 73%
